Measured values as given in PubChem BioAssay (NCI).
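Five compound concentrations were applied to cells in 96-well plates for 48 hours; endpoints were derived by simple linear interpolation of the resulting dose-response curve. The concentration for 50% growth inhibition is given as GI50.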 A number of entries come with more than one value. This is not the full list of results. The source may hold further records. A record mostly stands for its own series of concentrations, not given here; a value can be the end of its range. Marks in square brackets tell the records apart. The letters are not those of the source and start again with each entry.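 The concentration for full growth arrest is given as TGI.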

System: MDA-MB-468 breast
Experiment: NCI anticancer screen, dose series, 48 h

With Cc1nc(Nc2ncc(C(=O)Nc3c(C)cccc3Cl)s2)cc(N2CCN(CCO)CC2)n1 the GI50 was 86 nM [sample A, 1 test] and 94 nM [sample A, mean of 2 tests] and 865 nM [sample B, mean of 2 tests] and 335 nM [sample C, mean of 2 tests] and the TGI was 1.25 µM [sample A, 1 test] and 1.34 µM [sample A, mean of 2 tests] and 7.84 µM [sample B, mean of 2 tests] and 3.97 µM [sample C, mean of 2 tests].
